Experimental findings from doi:10.1101/2020.07.17.209288 (2020) are described below.

The target of this test is Spike protein S1 […] (Severe acute respiratory syndrome …). Put plainly: ELISA. For orientation: An ELISA detects its analyte on a solid surface through an enzyme-linked reagent.

B1: Neuropilin-1 ECD (protein)
chain: not shown
B1: the Kd is about 166 nM.

As a reminder, the Kd is the constant that tells how readily two partners part at equilibrium.
